Assay results taken from the supplement of paper PMC6609913.
Where a name gives a salt, the structure may show the parent alone. ± gives the standard deviation of the averaged measurements. In all, about 1,300 compounds were measured (“normalised cell viability”: median about 1, lowest 2% from about 0.15 on). Some of the results follow.

System: V-C8 + BRCA2 (BRCA2-proficient hamster cells)
Test: normalised cell viability (fraction of plate median); higher = more viable cells (less toxic)
Conditions: 5 µM
Procedure, shortened: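 Hamster V-C8 cells lacking BRCA2 and V-C8 cells with BRCA2 restored were seeded in 96-well plates. Library drugs (10 mM DMSO stocks) were added 24 h later at 5 μM in 100 μl medium, next to DMSO control wells, for 3 days (screen 1) or 6 days (screen 2). Cell viability was read by resazurin assay, median-plate normalised (modified robust per cent of sample), and triplicate wells were averaged.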

Structure (SMILES) | normalised cell viability (treatment time: 3 days) | normalised cell viability (treatment time: 6 days)
C[C@@H]1NC(=O)NC1=O [Methylhydantoin-5-(L)] | 0.988 ± 0.053 | 1.07 ± 0.046
CN1CCN(C2=Nc3cc(Cl)ccc3Nc3ccccc32)CC1 [Clozapine] | 1.01 ± 0.039 | 1.03 ± 0.047
CCC(NC(C)C)C(O)c1ccc(O)c(O)c1 (stereo not drawn) [Isoetharine mesylate salt] | 1.07 ± 0.041 | 1.01 ± 0.063
CCC(Cc1c(I)cc(I)c(N)c1I)C(=O)O (stereo not drawn) [Iopanoic acid] | 0.979 ± 0.038 | 1.09 ± 0.057
CN1CCc2cccc3c2[C@H]1Cc1ccc(O)c(O)c1-3 [R(-) Apomorphine hydrochloride hemihydrate] | 0.813 ± 0.023 | 0.867 ± 0.025
CO[C@@]1(NC(=O)CSCC#N)C(=O)N2C(C(=O)O)=C(CSc3nnnn3C)CS[C@@H]21 [Cefmetazole sodium salt] | 0.959 ± 0.029 | 0.98 ± 0.072
C[C@@H]1[C@H](O)[C@@H](C)/C=C/C=C/C=C/C=C/C=C/C=C/C=C/[C@H](O[C@@H]2O[C@H](C)[C@@H](O)[C@H](N)[C@@H]2O)C[C@@H]2O[C@](O)(C[C@@H](O)C[C@@H](O)[C@H](O)CC[C@@H](O)C[C@@H](O)CC(=O)O[C@H]1C)C[C@H](O)[C@H]2C(=O)O [Amphotericin B] | 0.902 ± 0.053 | 0.966 ± 0.062
CCOC(=O)C(C)(C)Oc1ccc(Cl)cc1 [Clofibrate] | 1.06 ± 0.016 | 1.03 ± 0.036
CC(C)NC[C@H](O)COc1ccc(CC(N)=O)cc1 [(S)-(-)-Atenolol] | 1.03 ± 0.026 | 0.983 ± 0.051
CC(=O)N(O)CCCCCNC(=O)CCC(=O)N(O)CCCCCNC(=O)CCC(=O)N(O)CCCCCN [Deferoxamine mesylate] | 0.335 ± 0.014 | 0.2 ± 0.029
O=C1Cc2cc(CCN3CCN(c4nsc5ccccc45)CC3)c(Cl)cc2N1 [Ziprasidone  Hydrochloride] | 0.206 ± 0.016 | 0.23 ± 0.013
CC(C)/N=c1\cc2n(-c3ccc(Cl)cc3)c3ccccc3nc-2cc1Nc1ccc(Cl)cc1 [Clofazimine] | 0.274 ± 0.021 | 0.346 ± 0.037
CCN[C@H]1C[C@H](C)S(=O)(=O)c2sc(S(N)(=O)=O)cc21 [Dorzolamide hydrochloride] | 0.941 ± 0.024 | 0.922 ± 0.075
O=c1cc(-c2ccc(O)c(O)c2)oc2cc(O)cc(O)c12 [Luteolin] | 0.936 ± 0.045 | 1.07 ± 0.059
CC(C)(C(=O)c1cccnc1)c1cccnc1 [Metyrapone] | 1.005 ± 0.0075 | 1.02 ± 0.081
Cn1ccnc1S [Methimazole] | 0.965 ± 0.019 | 1.02 ± 0.037
Nc1c(Br)cc(Br)cc1CN[C@H]1CC[C@H](O)CC1 [Ambroxol hydrochloride] | 1.17 ± 0.034 | 1.11 ± 0.087

Structure (SMILES) | normalised cell viability (treatment time: 3 days) | normalised cell viability (treatment time: 6 days)
CC(C)(Sc1cc(C(C)(C)C)c(O)c(C(C)(C)C)c1)Sc1cc(C(C)(C)C)c(O)c(C(C)(C)C)c1 [Probucol] | 0.922 ± 0.059 | 1.06 ± 0.013
CCN1C(=O)NC(c2ccccc2)C1=O (stereo not drawn) [Ethotoin] | 1.03 ± 0.044 | 0.927 ± 0.087
COc1ccccc1N1CCN(CC(O)COc2cccc3ccccc23)CC1 (stereo not drawn) [Naftopidil dihydrochloride] | 0.897 ± 0.069 | 0.905 ± 0.033
CN1CCCC(CC2c3ccccc3Sc3ccccc32)C1 (stereo not drawn) [Metixene hydrochloride] | 0.867 ± 0.014 | 0.888 ± 0.012
CN1CCC(=C2c3ccccc3CC(=O)c3sccc32)CC1 [Ketotifen fumarate] | 1.08 ± 0.022 | 1.07 ± 0.076
COc1ccc2c(c1)N(C[C@H](C)CN(C)C)c1ccccc1S2 [Methotrimeprazine maleat salt] | 0.896 ± 0.044 | 0.902 ± 0.097
CCCN(CCC)C(=O)C(CCC(=O)O)NC(=O)c1ccccc1 (stereo not drawn) [Proglumide] | 0.993 ± 0.11 | 0.986 ± 0.14
COc1cc(OC)c(C(=O)CCCN2CCCC2)c(OC)c1 [Buflomedil hydrochloride] | 1.04 ± 0.096 | 1.07 ± 0.025
N#CC(c1ccc(Cl)cc1)c1c(Cl)cc(-n2ncc(=O)[nH]c2=O)cc1Cl (stereo not drawn) [Diclazuril] | 0.946 ± 0.021 | 0.912 ± 0.037
CC(C)(S)[C@@H](N)C(=O)O [Penicillamine] | 1.05 ± 0.046 | 1.04 ± 0.06
Cc1cc(C(=O)NNCc2ccccc2)no1 [Isocarboxazid] | 0.947 ± 0.0096 | 1.02 ± 0.26
COc1ccc(-c2ccc(=N)n(CCCC(=O)O)n2)cc1 [Gabazine bromide] | 1 ± 0.1 | 1.03 ± 0.082
CO[C@H]1C[C@H](O[C@H]2[C@H](C)[C@@H](O[C@@H]3O[C@H](C)C[C@H](N(C)C)[C@H]3OC(C)=O)[C@@H](C)C[C@@]3(CO3)C(=O)[C@H](C)[C@@H](OC(C)=O)[C@@H](C)[C@@H](C)OC(=O)[C@@H]2C)O[C@@H](C)[C@@H]1OC(C)=O [Troleandomycin] | 1.08 ± 0.027 | 1.06 ± 0.04
Cn1c(=O)c2c(ncn2CC(=O)O)n(C)c1=O [Acefylline] | 1.02 ± 0.054 | 1.01 ± 0.035
CN(C)CC/C=C1\c2ccccc2CSc2ccccc21 [Dosulepin hydrochloride] | 0.175 ± 0.0046 | 0.175 ± 0.011
CC(C)(Oc1ccc(Cl)cc1)C(=O)O [Clofibric acid] | 1.02 ± 0.032 | 1.01 ± 0.017
CS(=O)(=O)c1ccc(C2=C(c3ccccc3)C(=O)OC2)cc1 [Rofecoxib] | 1 ± 0.039 | 1.02 ± 0.06
